The assay concerns the target T1, biotinylated truncated STAT6 (123-632)-avi (Homo sapiens, UniProt P42226).
T1 sequence (P42226 123-632 limits assumed): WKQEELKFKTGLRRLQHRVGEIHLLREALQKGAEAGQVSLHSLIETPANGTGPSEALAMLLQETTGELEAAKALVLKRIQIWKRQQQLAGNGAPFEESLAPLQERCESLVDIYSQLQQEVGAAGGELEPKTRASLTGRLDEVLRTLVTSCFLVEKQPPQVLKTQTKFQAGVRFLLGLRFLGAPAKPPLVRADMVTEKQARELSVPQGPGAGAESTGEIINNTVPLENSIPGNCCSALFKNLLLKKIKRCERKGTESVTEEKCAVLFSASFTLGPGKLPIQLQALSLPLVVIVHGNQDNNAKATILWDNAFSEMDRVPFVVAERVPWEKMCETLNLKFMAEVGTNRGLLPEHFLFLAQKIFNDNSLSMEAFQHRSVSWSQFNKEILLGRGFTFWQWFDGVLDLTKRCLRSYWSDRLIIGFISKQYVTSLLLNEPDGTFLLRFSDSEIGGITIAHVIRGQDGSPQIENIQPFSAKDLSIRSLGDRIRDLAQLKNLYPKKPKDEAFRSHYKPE
The assay is described as follows: Homogenous Time-Resolved Fluorescence (HTRF) binding assay. The settings on record: 0.15 nM biotinylated truncated STAT6 (123-632)-avi, 20 nM fluorescein-labeled probe, 30 minutes at room temperature.

The values that follow come from US20250214977A1, “STAT6 INHIBITORS AND USES THEREOF” (Kymera Therapeutics, Inc., priority 2024, published 2025).

What is called IC50 is the point on the concentration scale where inhibition reaches its midpoint. Lower therefore signals greater potency. On to `CC(=O)N1CCC=C(c2cc(-c3ccc4cnn(C)c4c3)c3cc(C(=O)N(C)C)[nH]c3c2F)C1` [Example I-882], for which the IC50 lay in the range of 100 to 1000 nM.

Take `CC(=O)N1CCC=C(c2cc(-c3ccc4n[nH]c(C)c4c3)c3cc(C(=O)N(C)C)[nH]c3c2F)C1` [Example I-883]: the IC50 was in the range of 100 to 1000 nM.

`CC(=O)N1CCC=C(c2cc(-c3cc(C#N)ccc3C)c3cc(C(=O)N(C)C)[nH]c3c2F)C1` [Example I-884] displayed a 50% inhibitory concentration (IC50) of 100 to 1000 nM.

For `CC(=O)N1CCC=C(c2cc(-c3ccc(C)nc3)c3cc(C(=O)N(C)C)[nH]c3c2F)C1` [Example I-885], the IC50 is 100 to 1000 nM.

In the case of `CC(=O)N1CCC=C(c2cc(-c3ccc4cncnc4c3)c3cc(C(=O)N(C)C)[nH]c3c2F)C1` [Example I-887], the IC50 fell in the range of 100 to 1000 nM.

For the compound `CC(=O)N1CCC=C(c2cc(-c3ccc(C(F)(F)F)cc3O)c3cc(C(=O)N(C)C)[nH]c3c2F)C1` [Example I-888], the IC50 is 100 to 1000 nM.

For the compound `CC(=O)N1CCC=C(c2cc(-c3ccccc3C)c3cc(C(=O)N(C)C)[nH]c3c2F)C1` [Example I-890], the IC50 lay within 100 to 1000 nM.

For `CC(=O)N1CCC=C(c2cc(-c3ccc(F)cc3O)c3cc(C(=O)N(C)C)[nH]c3c2F)C1` [Example I-891], the IC50 is 100 to 1000 nM.

`CN(C)C(=O)c1cc2cc(C3=CCCN(C(=O)CCn4ccnn4)C3)cc(NCc3ccc(C(F)(F)F)nc3)c2o1` [Example I-893] registered an IC50 below 100 nM.

Compound `Cc1cc(CNc2cc(C3=CCCN(C(=O)CCn4ccnn4)C3)cc3cc(C(=O)N(C)C)oc23)n(C)n1` [Example I-894] returned an IC50 of 100 to 1000 nM.

Compound `CN(C)C(=O)c1cc2cc(C3=CCCN(C(=O)CCn4ccnn4)C3)cc(NCc3ccc(C#N)cc3)c2o1` [Example I-895] returned an IC50 below 100 nM.

`CN(C)C(=O)c1cc2cc(C3=CCCN(C(=O)CCn4ccnn4)C3)cc(NC[C@@H]3CCC(=O)N3C)c2o1` [Example I-896] registered an IC50 of 100 to 1000 nM.

Compound `CC(=O)N1CCC=C(c2cc(-c3cnc4[nH]cc(C)c4c3)c3cc(C(=O)N(C)C)[nH]c3c2F)C1` [Example I-897] yielded an IC50 of 100 to 1000 nM.

`COc1ccccc1-c1cc(C2=CCCN(C(=O)CCn3ccnn3)C2)c(F)c2[nH]c(C(=O)N3CCC(N(C)C4CC4)C3)cc12` (centres unmarked) [Example I-898] came in with an IC50 below 100 nM.

The compound `COc1ccccc1-c1cc(C(=O)N(C)C)cc2cc(C3=CCCN(C(=O)CCn4ccnn4)C3)n(CC3CC3)c12` [Example I-899] came in with an IC50 below 100 nM.

Consider `COc1ccnc(N2CCN(C(=O)c3cc4c(-c5ccccc5OC)cc(C5=CCCN(C(=O)CCn6ccnn6)C5)c(F)c4[nH]3)CC2)c1` [Example I-900], for which the IC50 is below 100 nM.

With `COc1ccccc1-c1cc(C2=CCCN(C(=O)CCn3ccnn3)C2)c(F)c2[nH]c(C(=O)N3CCc4cccc(OC)c4C3)cc12` [Example I-901], the IC50 is below 100 nM.

Compound `CCOC(=O)c1cc2ccc(N3CCN(C(=O)c4cc5c(-c6ccccc6OC)cc(C6=CCCN(C(=O)CCn7ccnn7)C6)c(F)c5[nH]4)CC3)cn2c1` [Example I-903] gave an IC50 of 100 to 1000 nM.

Regarding `COc1ccccc1-c1cc(C2=CCCN(C(=O)CCn3ccnn3)C2)c(F)c2[nH]c(C(=O)N3CCN(c4nccc(-c5ccccc5)n4)CC3)cc12` [Example I-904], the IC50 was in the range of 100 to 1000 nM.

On to `COc1ccccc1-c1cc(C2=CCCN(C(=O)CCn3ccnn3)C2)c(F)c2[nH]c(C(=O)N3CCN(c4cn(C)c(=O)c5ccccc45)CC3)cc12` [Example I-905], for which the IC50 was below 100 nM.

`COc1ccccc1-c1cc(C2=CCCN(C(=O)CCn3ccnn3)C2)c(F)c2[nH]c(C(=O)N3CCN(c4nccc(-c5cn(C)c6ccccc56)n4)CC3)cc12` [Example I-906] gave an IC50 below 100 nM.

In the case of `COc1ccccc1-c1cc(C2=CCCN(C(=O)CCn3ccnn3)C2)c(F)c2[nH]c(C(=O)N3CCN(c4cc(F)c(F)c5ccc(C)nc45)CC3)cc12` [Example I-907], the IC50 is below 100 nM.

Take `COc1ccccc1-c1cc(C2=CCCN(C(=O)CCn3ccnn3)C2)c(F)c2[nH]c(C(=O)N3CCN(c4ccnnc4O)CC3)cc12` [Example I-908]: the IC50 is below 100 nM.

`COc1ccccc1-c1cc(C2=CCCN(C(=O)CCn3ccnn3)C2)c(F)c2[nH]c(C(=O)N3CCN(c4cc(C)c5ncnn5c4)CC3)cc12` [Example I-909]: the IC50 was below 100 nM.

`COc1ccccc1-c1cc(C2=CCCN(C(=O)CCn3ccnn3)C2)c(F)c2[nH]c(C(=O)N3CCN(c4cnc(SC)n5cnnc45)CC3)cc12` [Example I-910] came in with an IC50 below 100 nM.

Regarding `COc1ccccc1-c1cc(C2=CCCN(C(=O)CCn3ccnn3)C2)c(F)c2[nH]c(C(=O)N3CCN(C)C(c4ccccc4)C3)cc12` (centres unmarked) [Example I-911], the IC50 was in the range of 100 to 1000 nM.

Consider `COc1ccccc1-c1cc(C2=CCCN(C(=O)CCn3ccnn3)C2)c(F)c2[nH]c(C(=O)N3CCN(c4c(C)cccc4OC)CC3)cc12` [Example I-913], for which the IC50 lay within 100 to 1000 nM.

As for `COc1ccccc1-c1cc(C2=CCCN(C(=O)CCn3ccnn3)C2)c(F)c2[nH]c(C(=O)N3CCN(c4ccnc5c4CC(=O)N5)CC3)cc12` [Example I-914], the IC50 was below 100 nM.

Regarding `COc1ccccc1-c1cc(C2=CCCN(C(=O)CCn3ccnn3)C2)c(F)c2[nH]c(C(=O)N3CCN(c4cn5ccnc5cc4C)CC3)cc12` [Example I-915], the IC50 was below 100 nM.

`COc1ccccc1-c1cc(C2=CCCN(C(=O)CCn3ccnn3)C2)c(F)c2[nH]c(C(=O)N3CCN(c4nc5ccccc5c5ccccc45)CC3)cc12` [Example I-916] had an IC50 of 100 to 1000 nM.

For the compound `COc1ccccc1-c1cc(C2=CCCN(C(=O)CCn3ccnn3)C2)c(F)c2[nH]c(C(=O)N3CCN(c4cc(OC)c5ccnn5c4)CC3)cc12` [Example I-917], the IC50 was below 100 nM.

With `COc1ccccc1-c1cc(C2=CCCN(C(=O)CCn3ccnn3)C2)c(F)c2[nH]c(C(=O)N3CCN(c4ccc5c(c4)C=NCC5)CC3)cc12` [Example I-918], the IC50 is below 100 nM.

For `COc1ccccc1-c1cc(C2=CCCN(C(=O)CCn3ccnn3)C2)c(F)c2[nH]c(C(=O)N3CCN(c4ccn5nc(C)nc5c4)CC3)cc12` [Example I-919], the IC50 was below 100 nM.

Compound `COc1ccccc1-c1cc(C2=CCCN(C(=O)CCn3ccnn3)C2)c(F)c2[nH]c(C(=O)N3CCN(c4ncnc5ncn(C)c45)CC3)cc12` [Example I-920] had an IC50 below 100 nM.

`COc1ccccc1-c1cc(C2=CCCN(C(=O)CCn3ccnn3)C2)c(F)c2[nH]c(C(=O)N3CCN(c4cc(C)cc5c[nH]nc45)CC3)cc12` [Example I-921] registered an IC50 of 100 to 1000 nM.

In the case of `COc1ccccc1-c1cc(C2=CCCN(C(=O)CCn3ccnn3)C2)c(F)c2[nH]c(C(=O)N3CCN(c4ccc(OC)c(OC)c4OC)CC3)cc12` [Example I-922], the IC50 is 100 to 1000 nM.

Turning to `COc1ccccc1-c1cc(C2=CCCN(C(=O)CCn3ccnn3)C2)c(F)c2[nH]c(C(=O)N3CCN(c4nc(C)nc5ccccc45)CC3)cc12` [Example I-923], the IC50 was below 100 nM.

Compound `COc1ccccc1-c1cc(C2=CCCN(C(=O)CCn3ccnn3)C2)c(F)c2[nH]c(C(=O)N3CCN(c4cc5cccnc5cc4F)CC3)cc12` [Example I-924] had an IC50 below 100 nM.

With `COc1ccccc1-c1cc(C2=CCCN(C(=O)CCn3ccnn3)C2)c(F)c2[nH]c(C(=O)N3CCN(c4cc5cnn(C)c5cc4C)CC3)cc12` [Example I-925], the IC50 was in the range of 100 to 1000 nM.

Compound `COc1cc(N2CCN(C(=O)c3cc4c(-c5ccccc5OC)cc(C5=CCCN(C(=O)CCn6ccnn6)C5)c(F)c4[nH]3)CC2)c2ccnn2c1` [Example I-926] showed an IC50 below 100 nM.

`COc1ccccc1-c1cc(C2=CCCN(C(=O)CCn3ccnn3)C2)c(F)c2[nH]c(C(=O)N3CCN(c4cccc(OC(F)F)n4)CC3)cc12` [Example I-927] came in with an IC50 of 100 to 1000 nM.

With `COc1ccccc1-c1cc(C2=CCCN(C(=O)CCn3ccnn3)C2)c(F)c2[nH]c(C(=O)N3CCN(c4c(C)ccc5c4cnn5C)CC3)cc12` [Example I-928], the IC50 is below 100 nM.

In turn, `COc1ccccc1-c1cc(C2=CCCN(C(=O)CCn3ccnn3)C2)c(F)c2[nH]c(C(=O)N3CCN(c4ncnc5cccc(F)c45)CC3)cc12` [Example I-929] gave an IC50 below 100 nM.

Consider `CCOC(=O)c1ccc(N2CCN(C(=O)c3cc4c(-c5ccccc5OC)cc(C5=CCCN(C(=O)CCn6ccnn6)C5)c(F)c4[nH]3)CC2)cc1` [Example I-931], for which the IC50 is 100 to 1000 nM.

On to `COc1ccccc1-c1cc(C2=CCCN(C(=O)CCn3ccnn3)C2)c(F)c2[nH]c(C(=O)N3CCN(c4ccc(C(F)(F)F)cc4F)CC3)cc12` [Example I-932], for which the IC50 fell in the range of 100 to 1000 nM.

Compound `COc1ccccc1-c1cc(C2=CCCN(C(=O)CCn3ccnn3)C2)c(F)c2[nH]c(C(=O)N3CCN(c4ccn(C)n4)CC3)cc12` [Example I-933] displayed an IC50 below 100 nM.

Regarding `COc1ccccc1-c1cc(C2=CCCN(C(=O)CCn3ccnn3)C2)c(F)c2[nH]c(C(=O)N3CCN(c4cc(F)ccn4)CC3)cc12` [Example I-934], the IC50 was below 100 nM.

The compound `COc1ccccc1-c1cc(C2=CCCN(C(=O)CCn3ccnn3)C2)c(F)c2[nH]c(C(=O)N3CCN(c4cc(C(F)(F)F)ccn4)CC3)cc12` [Example I-935] returned an IC50 below 100 nM.

Regarding `COc1ccccc1-c1cc(C2=CCCN(C(=O)CCn3ccnn3)C2)c(F)c2[nH]c(C(=O)N3CCN(c4cccc5cncn45)CC3)cc12` [Example I-936], the IC50 was below 100 nM.

In turn, `COc1ccccc1-c1cc(C2=CCCN(C(=O)CCn3ccnn3)C2)c(F)c2[nH]c(C(=O)N3CCN(c4cccc(C(F)(F)F)n4)CC3)cc12` [Example I-937] displayed an IC50 of 100 to 1000 nM.
